# Results: PubChem BioAssay AID485367 (National Center for Advancing Translational Sciences (NCATS), 2010)
# In all, about 330,000 compounds went through this assay and about 560 (0.17%) were called active. The inconclusive results got no clear call from the source; some entries with a clear call stand among them for comparison. The call rests on the fitted dose curve; in most records, active means well fitted inhibition curve with a large enough effect; inconclusive means small, poorly fitted or top-dose-only effect, or effect the other way; inactive means flat fitted curve, though single readings scatter. No potency is given beside an inconclusive call; the fits are too rough.
# Biological target: ATP-dependent 6-phosphofructokinase (Trypanosoma brucei brucei) (UniProt O15648)
# Experiment: qHTS Assay to Find Inhibitors of T. brucei phosphofructokinase; further: nearly all actives have a fitted effect of over 60% in size
# Settings: T. brucei PFK, ADP-Glo luminescence; series mostly up to 57.5 µM
# In short: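 In TEA buffer at pH 8.0 with 5 mM MgCl2, enzyme (1.25 nM) converted F6P (0.5 mM) and ATP (0.1 mM) for 45 min at room temperature. ADP product was read by luciferase luminescence.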
# Potency means the concentration at half of the fitted maximal effect; tags describe the fitted curve by direction and shape.
# UniProt O15648, sequence (O15648 whole entry, looked up): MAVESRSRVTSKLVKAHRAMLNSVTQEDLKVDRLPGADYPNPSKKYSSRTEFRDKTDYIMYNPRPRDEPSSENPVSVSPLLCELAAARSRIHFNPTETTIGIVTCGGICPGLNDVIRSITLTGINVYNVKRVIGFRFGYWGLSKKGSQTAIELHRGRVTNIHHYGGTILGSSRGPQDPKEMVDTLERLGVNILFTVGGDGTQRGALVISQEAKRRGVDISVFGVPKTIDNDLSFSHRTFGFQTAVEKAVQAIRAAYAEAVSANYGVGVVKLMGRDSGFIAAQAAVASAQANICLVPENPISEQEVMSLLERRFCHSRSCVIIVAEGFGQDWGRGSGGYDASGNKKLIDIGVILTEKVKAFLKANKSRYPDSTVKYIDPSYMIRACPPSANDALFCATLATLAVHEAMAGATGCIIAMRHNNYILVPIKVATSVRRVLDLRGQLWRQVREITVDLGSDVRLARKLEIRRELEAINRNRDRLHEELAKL
row,Compound,Potency
1,C=CCSc1nc2sc3c(c2c(=O)n1CC)CCC3,"inconclusive [falling, single point]"
2,Nc1nnc(Cc2ccc(Cl)c(Cl)c2)s1,active: 19 µM
3,COc1ccc(-c2cc3c(=O)n(CC(=O)NCc4cccnc4)ncn3n2)cc1,"inconclusive [falling, single point]"
4,Oc1ccc(N=Cc2ccc(O)c(O)c2)cc1,inactive
5,COCCCn1c(C(=O)N2CC(C)OC(C)C2)cc2c(=O)n3cccc(C)c3nc21 (configuration not stated),inactive
6,O=C(CCOc1ccccc1)Nc1ccc(S(=O)(=O)Nc2ncccn2)cc1,inactive
7,CCCc1nc2ccccc2c(=O)n1/N=C/c1ccc(O)cc1,inactive
8,CCC(OC(=O)c1nsc(Cl)c1Cl)C(=O)NC(C)(C)CC (configuration not stated),"inconclusive [falling, single point]"
9,CCN(CC)S(=O)(=O)c1ccc(/C=C/C(=O)OCC(=O)NCc2ccco2)cc1,"inconclusive [falling, single point]"
10,Cc1nn(CC(=O)NCc2ccccc2Cl)c(C)c1[N+](=O)[O-],"inconclusive [falling, partial curve]"
11,CC(=O)Oc1ccc(C(=O)[C@H]2[C@H]3C(=O)N(c4ccccc4)C(=O)[C@H]3[C@@H]3C=CC=NN32)cc1,"inconclusive [falling, single point]"
12,COc1ccc(CCC(C)Nc2cccc(F)c2)cc1 (configuration not stated),"inconclusive [falling, single point]"
13,Cc1ccc(C(=O)OCC(=O)c2ccc(CC(=O)N3CCOCC3)s2)c(C)c1,"inconclusive [falling, partial curve]"
14,CN(C)S(=O)(=O)c1ccc2[nH]cc(/C=C/c3nc4ccccc4c(=O)n3-c3ccccc3)c2c1,inactive
15,COc1ccc(CC(=O)Nc2ccc(S(=O)(=O)Nc3cc(OC)nc(OC)n3)cc2)cc1,"inconclusive [falling, partial curve, poor fit]"
16,CC(=O)c1ccc2noc(-c3ccccc3)c2c1,inactive
17,CC(=O)c1ccc(NC(=O)c2sc3nc(N4CCOCC4)c4c(c3c2N)CCCC4)cc1,"inconclusive [activator, single point]"
18,C=CC[C@H](CC(=O)NCCO)C(=O)N[C@H](COC(=O)[C@H](CC=C)CC(=O)OC(C)(C)C)Cc1c[nH]c2ccccc12,inactive
19,C=CCn1c(=NC(=O)c2sc3ccccc3c2Cl)sc2cc(S(N)(=O)=O)ccc21,inactive
20,Cc1ccc(C)n1Cc1ccc(C(=O)O)cc1,active: 6.75 µM
21,Cc1noc(NS(=O)(=O)c2ccc(NC(=O)CSc3n[nH]c(-c4ccccc4)n3)cc2)c1C,inactive
22,Oc1ccc(-c2cnns2)c(O)c1,"inconclusive [falling, single point]"
23,COc1ccc2nc(NC(=O)c3ccc(-c4cccc([N+](=O)[O-])c4)o3)sc2c1,inactive
24,COc1ccc(S(=O)(=O)N2CCCN(S(=O)(=O)c3ccc(OC)cc3C)CC2)c(C)c1,"inconclusive [activator, single point]"

row,Compound,Potency
1,Cc1cccc(C(=O)Nc2ccc3c(c2)C(=O)NC3=O)c1,"inconclusive [falling, partial curve]"
2,CC(=O)Nc1cc(NC(C)=O)cc(C(=O)OCC(=O)N(c2ccccc2)C2CCS(=O)(=O)C2)c1 (configuration not stated),"inconclusive [falling, single point]"
3,O=c1c(-c2ccc(Cl)cc2)coc2c(CN3CCOCC3)c(O)ccc12,inactive
4,CC(=O)NC1C(=O)N(CCN2CCOCC2)c2ccc(F)cc21 (configuration not stated),"inconclusive [falling, partial curve]"
5,Cc1cccc(OC(C)C(=O)Nc2ccc(S(=O)(=O)N3CCCC3)cc2)c1 (configuration not stated),inactive
6,COc1ccc(CCNC(=O)CNCC(c2ccccc2)N(C)C)cc1OC (configuration not stated),inactive
7,O=C(O)c1ccc(N/N=C/C=C/c2ccc([N+](=O)[O-])o2)cc1,"inconclusive [falling, single point]"
8,Clc1ccccc1CSC1=NCCCN1,inactive
9,CC(C)Cn1c(SC(C)C(=O)Nc2ccc(N3CCOCC3)cc2)nc2ccccc21 (configuration not stated),"inconclusive [falling, single point]"
10,O=C(c1ccc(Cn2cc(Br)cn2)cc1)N1CCN(c2ccccc2)CC1,inactive
11,CC(=O)Nc1cccc(C(=O)NC2CCCc3c2cnn3-c2ccc(C(C)(C)C)cc2)c1 (configuration not stated),inactive
12,COC(=O)Cn1c(=NC(=O)c2ccc(OC)cc2)sc2cc(OC)ccc21,"inconclusive [falling, single point]"
13,O=S(=O)(CC(O)COc1ccccc1Cl)c1ccccc1 (configuration not stated),"inconclusive [falling, single point]"
14,COc1ccc(NC(=O)CN(C)CC(=O)Nc2sc3c(c2C#N)CCC3)cc1,"inconclusive [falling, full curve]"
15,CC(C)c1nc(SCC(=O)Nc2ccc(N3CCOCC3)cc2)c2ccccc2n1,"inconclusive [activator, single point]"
16,CCOC(=O)C1=C(C)N(C)C(=S)NC1c1ccccc1 (configuration not stated),"inconclusive [falling, single point]"
17,CCCOc1ccc(/C(O)=C2/C(=O)C(=O)N(CCCn3ccnc3)C2c2ccc(C)o2)cc1 (configuration not stated),"inconclusive [falling, partial curve]"
18,Cc1c(-c2ccccc2)c(P(=O)(N2CCOCC2)N2CCOCC2)c2ccccn12,"inconclusive [falling, single point]"
19,COc1ccc(C(c2c(C)n(C)n(-c3ccccc3)c2=O)c2c(C)n(C)n(-c3ccccc3)c2=O)cc1OC,"inconclusive [falling, single point]"
20,CS(=O)(=O)Nc1ccccc1C(=O)Nc1ccc2c(c1)OCCO2,inactive
21,O=C(CSc1ccc([N+](=O)[O-])cc1)Nc1cccc(S(=O)(=O)Nc2ccccc2F)c1,"inconclusive [falling, partial curve]"
22,Nc1cc(N)cc(C(=O)Nc2ccc3c(c2)C(=O)NC3=O)c1,"inconclusive [falling, partial curve]"
23,COC(=O)c1ccc(NC(=S)NC2CC(C)(C)NC(C)(C)C2)cc1,"inconclusive [falling, single point]"
24,CCOc1ccc(-c2nc(C#N)c(NCc3ccc4c(c3)OCO4)o2)cc1,"inconclusive [falling, single point]"

row,Compound,Potency
1,COc1ccc(CNC(=O)COC(=O)c2ccc(S(=O)(=O)NCc3ccco3)cc2)cc1,"inconclusive [falling, single point]"
2,Cc1cc(C)nc(-n2nc(C)cc2NC(=O)CN2CCC(C)CC2)n1,inactive
3,Fc1ccc(C(c2nnnn2C2CCCC2)N(Cc2ccco2)CC2CCCO2)cc1 (configuration not stated),"inconclusive [falling, single point]"
4,CCc1nnc(NS(=O)(=O)c2ccc(NC(=O)COc3ccc(Cl)c(C)c3)cc2)s1,active: 5.36 µM
5,Cc1nn(-c2ccccc2)c(C)c1NC(=O)COc1ccc(Cl)cc1Cl,"inconclusive [falling, partial curve]"
6,O=C(NCC1CCN(Cc2cccc(Cl)c2)CC1)Nc1ccc(Cl)cc1,"inconclusive [falling, partial curve]"
7,O=C(c1ccco1)N1CCN(c2cccc(Cl)c2)CC1,"inconclusive [falling, partial curve, poor fit]"
8,COC(=O)c1sc(-c2ccc(Cl)cc2)cc1NC(=O)CSCC(=O)O,inactive
9,O=C(CCS(=O)(=O)c1ccc(Br)cc1)NCc1ccc(F)cc1,active: 23.9 µM
10,COC(=O)/C(C#N)=C(/Nc1ccc(F)c(Cl)c1)C(F)(F)F,active: 26.9 µM
11,COc1ccc([C@H]2CC(=O)C=C(c3cccc(C(C)C)c3)C2)cc1,"inconclusive [falling, single point]"
12,CCCCc1cc(=O)oc2cc(OCC(=O)N3CCC(C(=O)O)(c4ccccc4)CC3)ccc12,"inconclusive [falling, single point]"
13,O=c1cnn(Cc2ccc(Cl)c(Cl)c2)c2ccccc12,"inconclusive [falling, partial curve]"
14,CC(C)CN(C(=O)COC(=O)c1cc2c(s1)CCC2)C1CCS(=O)(=O)C1 (configuration not stated),"inconclusive [falling, full curve]"
15,O=C(CCCN1CCc2[nH]c3ccc(F)cc3c2C1)c1ccc(F)cc1,"inconclusive [falling, single point]"
16,CC1=C(C(=O)OCc2ccccc2)C(c2ccc3ccccc3c2)NC(=O)N1CCCC(=O)O (configuration not stated),inactive
17,CN(CC1COc2ccccc2O1)C(=S)NC1CCCCC1 (configuration not stated),inactive
18,Cc1nc(Nc2cccc(Cl)c2)c2oc3ccccc3c2n1,inactive
19,O=C(Cc1ccc(Br)cc1)Nc1ccc(S(=O)(=O)N2CCCC2)cc1,active: 19 µM
20,COc1ccccc1NC(=O)Cc1noc(CSc2cccc[n+]2[O-])n1,inactive
21,O=C(O)c1cccc(NC(=O)c2ccc(N3C(=O)c4ccc(C(=O)Nc5cccc(C(=O)O)c5)cc4C3=O)cc2)c1,"inconclusive [activator, single point]"
22,C=CCn1c(NC(=O)c2ccccc2Cl)c(C#N)c2nc3ccccc3nc21,inactive
23,CCOC(=O)N(C)OC(=O)Nc1ccc(Cl)c(Cl)c1,active: 1.51 µM
24,O=S(=O)(O)c1cc(O)c2c(O)c(N=Nc3cc(Cl)ccc3O)c(S(=O)(=O)O)cc2c1,"inconclusive [falling, single point]"
